Two molecules from publication PMC4304707 can be followed below.

The chains behind the UniProt entries cited, without tags or fusion partners.
UniProt Q9SUP6: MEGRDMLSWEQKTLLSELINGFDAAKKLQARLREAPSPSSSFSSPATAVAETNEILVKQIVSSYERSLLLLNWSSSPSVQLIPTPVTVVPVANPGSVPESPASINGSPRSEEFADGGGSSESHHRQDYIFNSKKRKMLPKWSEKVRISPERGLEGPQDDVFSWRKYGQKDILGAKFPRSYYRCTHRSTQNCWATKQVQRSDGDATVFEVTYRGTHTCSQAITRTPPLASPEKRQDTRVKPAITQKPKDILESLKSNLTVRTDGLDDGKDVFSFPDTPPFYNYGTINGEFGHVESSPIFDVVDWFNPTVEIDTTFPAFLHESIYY

What all share (experiment): split reporter; BiFC: cYFP and nYFP fusion constructs (20 μg each) co-transfected into Arabidopsis mesophyll protoplasts (PEG-calcium), 16–18 h in the dark at room temperature, confocal laser scanning microscopy; signal restricted to the nucleus
In one assay the target is T1, ARF5 (Arabidopsis) (UniProt P93024).
T1 sequence: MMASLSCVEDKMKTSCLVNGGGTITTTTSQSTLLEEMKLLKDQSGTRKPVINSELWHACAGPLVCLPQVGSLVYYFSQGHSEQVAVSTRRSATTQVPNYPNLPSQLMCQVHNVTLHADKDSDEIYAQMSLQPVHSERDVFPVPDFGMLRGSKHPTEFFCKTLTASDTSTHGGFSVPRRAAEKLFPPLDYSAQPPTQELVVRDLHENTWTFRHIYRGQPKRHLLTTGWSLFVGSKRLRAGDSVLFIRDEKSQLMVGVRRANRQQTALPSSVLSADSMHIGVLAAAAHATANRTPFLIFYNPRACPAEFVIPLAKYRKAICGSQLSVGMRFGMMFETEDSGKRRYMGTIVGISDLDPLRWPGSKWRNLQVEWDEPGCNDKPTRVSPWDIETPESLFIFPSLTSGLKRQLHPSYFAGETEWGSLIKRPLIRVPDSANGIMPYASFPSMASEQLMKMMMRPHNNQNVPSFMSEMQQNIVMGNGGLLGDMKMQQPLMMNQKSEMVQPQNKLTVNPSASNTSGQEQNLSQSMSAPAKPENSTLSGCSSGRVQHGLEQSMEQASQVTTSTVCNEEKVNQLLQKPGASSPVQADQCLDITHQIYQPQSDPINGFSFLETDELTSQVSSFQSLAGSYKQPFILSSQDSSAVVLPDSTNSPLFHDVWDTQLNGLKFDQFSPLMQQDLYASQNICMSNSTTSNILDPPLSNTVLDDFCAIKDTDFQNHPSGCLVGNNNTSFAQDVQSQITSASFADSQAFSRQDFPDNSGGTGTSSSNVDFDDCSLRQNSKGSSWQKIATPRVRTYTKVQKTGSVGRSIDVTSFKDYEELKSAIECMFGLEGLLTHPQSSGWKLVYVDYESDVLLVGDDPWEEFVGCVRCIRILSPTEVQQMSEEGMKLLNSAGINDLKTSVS

Assay [1] concerns the target T2, ARF5Δ722-cYFP (Arabidopsis) (UniProt P93024).
T2 sequence: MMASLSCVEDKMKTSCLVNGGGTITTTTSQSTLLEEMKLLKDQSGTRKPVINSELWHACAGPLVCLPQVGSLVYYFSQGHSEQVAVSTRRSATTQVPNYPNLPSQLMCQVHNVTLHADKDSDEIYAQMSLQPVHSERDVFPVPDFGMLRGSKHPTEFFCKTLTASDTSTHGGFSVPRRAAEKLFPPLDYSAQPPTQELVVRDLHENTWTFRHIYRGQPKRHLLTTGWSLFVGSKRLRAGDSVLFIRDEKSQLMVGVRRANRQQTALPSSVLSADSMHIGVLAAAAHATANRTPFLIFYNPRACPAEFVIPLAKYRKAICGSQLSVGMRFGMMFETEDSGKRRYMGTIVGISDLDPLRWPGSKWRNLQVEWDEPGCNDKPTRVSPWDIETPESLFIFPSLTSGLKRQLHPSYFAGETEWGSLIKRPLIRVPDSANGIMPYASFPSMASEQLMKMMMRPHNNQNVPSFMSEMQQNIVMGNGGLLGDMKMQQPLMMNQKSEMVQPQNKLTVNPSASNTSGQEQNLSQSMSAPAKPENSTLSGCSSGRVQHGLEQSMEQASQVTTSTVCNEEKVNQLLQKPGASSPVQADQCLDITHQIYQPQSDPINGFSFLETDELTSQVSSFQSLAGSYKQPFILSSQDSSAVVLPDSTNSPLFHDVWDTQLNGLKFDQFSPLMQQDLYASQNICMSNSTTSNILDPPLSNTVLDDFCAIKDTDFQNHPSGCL

The target in assay [2] is WRKY53-cYFP (Arabidopsis) (UniProt Q9SUP6).
A further assay has as its target T3, WRKY40 (Arabidopsis) (UniProt Q9SAH7).
T3 sequence: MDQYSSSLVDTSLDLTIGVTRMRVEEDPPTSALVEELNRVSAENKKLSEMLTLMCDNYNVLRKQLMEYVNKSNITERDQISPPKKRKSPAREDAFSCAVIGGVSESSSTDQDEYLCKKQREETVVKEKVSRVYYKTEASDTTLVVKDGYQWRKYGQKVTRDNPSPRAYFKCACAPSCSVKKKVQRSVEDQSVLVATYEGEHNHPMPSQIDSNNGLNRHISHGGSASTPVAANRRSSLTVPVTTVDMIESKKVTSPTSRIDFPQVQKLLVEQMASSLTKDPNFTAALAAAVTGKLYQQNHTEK

The next assay concerns the target T4, ARF3-cYFP (Arabidopsis) (UniProt O23661).
T4 sequence: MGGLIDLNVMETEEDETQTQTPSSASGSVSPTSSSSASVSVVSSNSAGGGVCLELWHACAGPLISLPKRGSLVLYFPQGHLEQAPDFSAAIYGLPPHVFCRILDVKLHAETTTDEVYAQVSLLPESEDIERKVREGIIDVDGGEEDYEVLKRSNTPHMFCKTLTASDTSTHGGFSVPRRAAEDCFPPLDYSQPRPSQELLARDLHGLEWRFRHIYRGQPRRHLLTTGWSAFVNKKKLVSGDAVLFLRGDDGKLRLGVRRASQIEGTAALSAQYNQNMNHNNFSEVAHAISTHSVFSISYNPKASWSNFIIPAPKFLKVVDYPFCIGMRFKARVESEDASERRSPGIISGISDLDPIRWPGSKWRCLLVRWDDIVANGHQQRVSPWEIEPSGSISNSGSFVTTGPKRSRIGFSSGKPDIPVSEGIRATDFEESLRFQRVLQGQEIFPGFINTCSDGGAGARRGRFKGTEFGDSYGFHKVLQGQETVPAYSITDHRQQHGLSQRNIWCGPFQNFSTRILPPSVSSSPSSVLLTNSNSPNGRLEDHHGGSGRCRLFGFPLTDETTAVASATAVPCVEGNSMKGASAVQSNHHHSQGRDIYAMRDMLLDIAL

These are yes or no findings as the source states them, for the method shown. Binding seen in cells or lysates may run through a third protein. Some results given as binding are weak or reduced against the parent protein; the word gives no strength. For some of these results: Tags and fused reporters may be left off the sequences shown.

B1: WRKY40 (protein, UniProt Q9SAH7 1-302)
chain: T3 sequence
For B1, the binding entry in the assay with ARF5 (Arabidopsis) is on record as “binds”; in assay [1], “no binding”; in assay [2] it was “no binding”; in the assay with WRKY40 (Arabidopsis) it was “binds”; with ARF3-cYFP (Arabidopsis), “no binding”.

B2: ARF5 (protein, UniProt P93024 1-902)
chain: T1 sequence
On to B2, for which the binding entry with ARF5 (Arabidopsis) is “binds”; in assay [1] it was “no binding”; in assay [2], “no binding”; in the assay with WRKY40 (Arabidopsis), “binds”; with ARF3-cYFP (Arabidopsis), “no binding”.
